Laboratory results reported in publication PMC4336329 (PLoS ONE, 2015).
Screen size: about 310,000 compounds; about 2,200 (0.71%) showed an effect of 50% or more. The effect is printed as a negative number. This is one part of the list.

Molecular target: human ether-à-go-go-related gene (hERG) potassium channel (human, UniProt Q12809)
Test: primary screen, population patch clamp on CHO cells stably expressing hERG

Sequence of human ether-à-go-go-related gene (hERG) potassium channel (Q12809 whole entry, looked up): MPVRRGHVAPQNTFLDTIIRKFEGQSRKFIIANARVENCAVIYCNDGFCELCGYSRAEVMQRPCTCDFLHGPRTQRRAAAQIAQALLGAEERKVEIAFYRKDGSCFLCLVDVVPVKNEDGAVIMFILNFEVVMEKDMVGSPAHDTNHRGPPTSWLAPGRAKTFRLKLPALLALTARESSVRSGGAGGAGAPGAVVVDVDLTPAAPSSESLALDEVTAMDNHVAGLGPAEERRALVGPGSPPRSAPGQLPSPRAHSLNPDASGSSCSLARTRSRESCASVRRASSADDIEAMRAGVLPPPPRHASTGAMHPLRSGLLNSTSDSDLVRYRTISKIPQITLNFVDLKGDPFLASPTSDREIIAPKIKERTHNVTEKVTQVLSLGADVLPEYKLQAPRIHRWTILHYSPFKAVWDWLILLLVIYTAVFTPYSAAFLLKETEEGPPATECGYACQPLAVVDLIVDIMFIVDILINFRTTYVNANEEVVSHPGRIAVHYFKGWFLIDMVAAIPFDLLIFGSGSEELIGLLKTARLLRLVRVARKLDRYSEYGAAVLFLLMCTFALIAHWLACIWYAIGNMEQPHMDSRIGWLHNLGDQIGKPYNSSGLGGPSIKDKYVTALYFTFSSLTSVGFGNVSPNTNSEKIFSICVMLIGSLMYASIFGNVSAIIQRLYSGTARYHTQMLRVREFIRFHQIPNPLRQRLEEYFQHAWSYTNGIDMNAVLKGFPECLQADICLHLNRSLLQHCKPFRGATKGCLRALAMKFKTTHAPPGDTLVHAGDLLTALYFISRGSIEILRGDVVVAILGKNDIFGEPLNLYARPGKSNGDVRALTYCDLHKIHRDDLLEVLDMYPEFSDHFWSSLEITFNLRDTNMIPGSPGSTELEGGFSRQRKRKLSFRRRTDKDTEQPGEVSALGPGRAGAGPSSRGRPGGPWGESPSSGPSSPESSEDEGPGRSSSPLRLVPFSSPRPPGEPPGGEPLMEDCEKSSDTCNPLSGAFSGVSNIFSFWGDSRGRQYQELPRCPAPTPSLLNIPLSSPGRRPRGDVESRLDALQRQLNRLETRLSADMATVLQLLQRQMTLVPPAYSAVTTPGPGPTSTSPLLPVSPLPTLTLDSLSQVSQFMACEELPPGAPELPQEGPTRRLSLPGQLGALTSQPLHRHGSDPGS

Structure (SMILES)	hERG current change (%, negative = inhibition) at 1uM [%]
Cc1ccccc1NC(=O)c1ccno1	12.9
COc1ccc(C(C(=O)NC2CCCCC2)N(C(=O)c2snc(C(N)=O)c2N)c2ccccc2OC)cc1 (centres unmarked)	17.4
COc1ccc(/C=C/C(=O)Oc2ccc(C)cc2)cc1	1.29
CN(C)S(=O)(=O)c1ccc(N2CCCC2)c(C(=O)Nc2nc3c(ccc4ccccc43)s2)c1	16.5
Cn1c(=O)c2[nH]c(-c3ccccc3O)nc2n(C)c1=O	17.2
COc1ccc(-n2cc(-c3ccccc3)c3c(NN4CCOCC4)ncnc32)cc1	-7.34
O=C(CSc1nccc2ccccc12)N1CCN(Cc2ccc3c(c2)OCO3)CC1	-14.4
CC(NC(=O)Cn1cnc([N+](=O)[O-])n1)c1ccccc1 (centres unmarked)	15.4
O=C(CSc1nnc(NC(=O)C2CC2)s1)NCc1cccs1	7.31
NNC(=O)c1nc[nH]c1C(=O)Nc1ccccc1[N+](=O)[O-]	16.6
C#CCOCCOCCOCCNc1nc(N2CCN(C(=O)CCCCCCCCCCNC(=O)[C@H](CCCCN)n3cc(C)nn3)CC2)nc(N2CCN(C(=O)CCCCCCCCCCNC(=O)[C@H](CCCCN)n3cc(CCCC(=O)O)nn3)CC2)n1	17.3
Cc1ccc(S(=O)(=O)NCc2ccco2)cc1C	1.95
Cc1ccc2oc(C(=O)N(CCO)Cc3ccccc3)c(C)c2c1	11.9
COC(=O)c1cccc(NC(=S)NC(C)C)c1	7.06
Cc1ccccc1-c1nc(CN2CCC(C(=O)NCCCN3CCCC3)CC2)c(C)o1	17.2
O=C(c1ccccc1NS(=O)(=O)c1ccc(F)cc1)N1CCCCC1	-4.95
C=CCN1C(=O)C(=O)N(CC(=O)c2ccc3c(c2)CCCC3)C1=O	3.04
Nc1nc(-c2ccccn2)nc(N)c1Cc1ccccc1F	9.09
Cc1ccc(C)c(NC(=O)CCc2nnc3ccc(N4CCCC4)nn23)c1	3.57
CCOc1ccc(NC(=S)Nc2ccc(C)c([N+](=O)[O-])c2)cc1.Cl	15.8
N[C@@]12CCc3nonc3[C@]1(O)CC(c1ccccc1)=[N+]2[O-]	2.68
O=C(N1CCOCC1)C12CCC3CC(CC(C3)C1)C2	0.677
COc1cc(C2NC(=S)NC(c3ccccc3)=C2C(C)=O)cc(Br)c1OCC(N)=O (centres unmarked)	6.27
